The list shows a part of the results. Values were computed here from the reads of four pooled replicates and scatter widely.
target: T1, Pho4 (S. cerevisiae) (UniProt P07270); experiment: relative binding free energy (BET-seq); higher = weaker binding; details: reference: library average
T1 sequence: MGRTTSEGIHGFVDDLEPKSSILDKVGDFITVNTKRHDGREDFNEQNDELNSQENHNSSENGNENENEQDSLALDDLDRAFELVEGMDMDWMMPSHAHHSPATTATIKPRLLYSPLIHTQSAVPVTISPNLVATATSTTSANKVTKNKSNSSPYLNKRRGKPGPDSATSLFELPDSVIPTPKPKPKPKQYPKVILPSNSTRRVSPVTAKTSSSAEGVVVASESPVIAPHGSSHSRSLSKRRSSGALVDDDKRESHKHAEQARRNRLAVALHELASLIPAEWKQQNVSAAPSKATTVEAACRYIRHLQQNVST

Sequence | relative binding free energy [kcal/mol]
TGTCGCACGTGTGGTA | -0.09
ATTTTCACGTGTAGTC | 0.27
TCTTGCACGTGGGTTC | -0.13
AAAGTCACGTGGAGCG | 0.22
AAGTTCACGTGTTGCT | 0.21
TTGTTCACGTGCGGCA | 0.2
TTTATCACGTGTCGTA | 0.19
TCTGGCACGTGATTTT | -0.01
GGGTACACGTGGTCGG | 0.03
GTGGTCACGTGAGGTC | 0.22
AAAAGCACGTGATGTT | 0.05
GGGTTCACGTGGAAAA | 0.36
GCGGACACGTGGGTTT | 0
GTATACACGTGAGGCG | 0.3
AGTGGCACGTGAAAAG | 0.06
AGGTTCACGTGGCGTG | 0.22
TCTGTCACGTGTGTTC | 0.01
TGTTGCACGTGGTAAT | -0.03
ATCGGCACGTGAGGAT | 0.21
TGGTTCACGTGTGTAC | 0.11
TAGTTCACGTGGTGTA | 0.07
TTTATCACGTGGTATT | 0.14
TTGGGCACGTGGGATT | -0.1

Sequence | relative binding free energy [kcal/mol]
CTCTACACGTGGTGGG | -0.03
GGTGTCACGTGTGGCC | 0.23
TGGCTCACGTGCGGTT | 0.27
ATGTCCACGTGGAGTT | 0.09
TGAATCACGTGGGGTT | 0.06
TCTTACACGTGTGCGG | 0.18
TTCATCACGTGGGGCA | 0.08
TTAAGCACGTGTTATG | -0.16
GTAGGCACGTGCGGGC | -0.31
GTCGTCACGTGGTCGT | -0.05
TTGCCCACGTGTGTGG | -0.13
AGCTTCACGTGTGTGC | 0.24
AGGTGCACGTGGGGTG | -0.15
TTAGGCACGTGTACAG | -0.18
GTGGTCACGTGGCGAT | 0.07
TATATCACGTGGAGGA | 0.05
TCGAGCACGTGGTTTT | -0.21
GTGTGCACGTGATTTG | 0.12
TTGTTCACGTGCTGTC | 0.1
CGTAGCACGTGTTCGT | -0.09
TCGTTCACGTGAGCGG | 0.4
GTTTTCACGTGTGCAA | 0.18
CGTCGCACGTGGGGTA | -0.22

Sequence | relative binding free energy [kcal/mol]
AGGTACACGTGTGGCG | 0.15
TGTGCCACGTGGGTCG | -0.23
GACTTCACGTGAGGTG | 0.53
TAAAACACGTGTTTTG | 0.05
ACGTTCACGTGGCGTG | 0.04
TTCTTCACGTGTGCGG | 0.3
GGTGCCACGTGTTGGG | 0.01
GTTCACACGTGGATGG | 0.32
TTGTACACGTGTTATT | -0.01
TTCATCACGTGAGTTA | 0.34
GGGAACACGTGGTGAT | 0.04
TATGTCACGTGGGAGG | -0.02
TTGAACACGTGTGAGG | 0.11
GCGCGCACGTGTGGGG | -0.13
CGTTTCACGTGAATGT | 0.39
TGAGTCACGTGTGCTT | 0.24
TGGTACACGTGGTTAC | -0.04
GGGTTCACGTGCGGAT | 0.33
ATAATCACGTGGTGCA | 0.08
GGTCACACGTGGGTTC | 0.07
TAGATCACGTGAGGTG | 0.38
TCGGGCACGTGGGGCA | -0.3
GAAGTCACGTGCGTTT | 0.18

Sequence | relative binding free energy [kcal/mol]
TTGCGCACGTGTGATT | 0.02
CGCGGCACGTGGGGTA | -0.25
ATTAACACGTGGAGGG | 0.04
TTTCTCACGTGGCTTG | 0.21
GGACACACGTGTGTGG | -0.05
GTTAGCACGTGTAGTT | 0.11
AAGTGCACGTGCATGT | -0.1
GGATGCACGTGAATGT | 0.26
GCGTGCACGTGTGGGC | 0.11
AGTCGCACGTGTTGGT | -0.04
GGATACACGTGTTATT | 0.12
TGTTTCACGTGTCGTA | 0.29
TGCTTCACGTGGCGGT | 0.13
GTGTGCACGTGTGTAT | 0.06
ACGTACACGTGGCGGG | -0.04
TAATGCACGTGGACGG | 0.02
CGGAACACGTGATTGG | 0.25
GGTGTCACGTGCTCGT | 0.03
TTCAACACGTGATTTT | 0.21
ATTAGCACGTGTGTCT | 0.02
GGTTACACGTGATGAG | 0.27
GTGAGCACGTGAGGGA | 0.17
TCGTTCACGTGCGTGA | 0.23

Sequence | relative binding free energy [kcal/mol]
GGGCTCACGTGGGCGG | 0.22
TAGGTCACGTGGGTTG | -0.02
GAGTTCACGTGCATGA | 0.45
CCGGTCACGTGGGGTA | 0.08
CTGTTCACGTGTCGTT | 0.19
AGTACCACGTGGGGGT | -0.37
AATTACACGTGCTTTG | 0.02
GTGAGCACGTGGAGTC | 0.05
TAAGGCACGTGGCGTA | -0.2
TGTTACACGTGATGAT | 0.22
TCTTACACGTGTATAT | 0.14
GGGTTCACGTGCGTTA | 0.27
ACATTCACGTGTTTTA | 0.3
AGTAGCACGTGTTACG | -0.11
AGAGTCACGTGATGCT | 0.18
CGTAGCACGTGTTCGG | -0.02
ATCGGCACGTGAGCGT | 0
TTTTTCACGTGATAGA | 0.38
CGTGGCACGTGAAGTA | 0.2
TCTGGCACGTGAGATG | 0.27
GAATGCACGTGGGCGG | -0.02
AGTAGCACGTGGGTAC | -0.21
GAAGACACGTGTGGGC | 0.03

From the BET-seq Pho4 binding data (Le et al. 2018)
